{
  "source": "the supplement of paper PMC12423691",
  "binders": {"B1": {"name": "NFKBIB, Q15653 (protein)", "chain": "MAGVACLGKAADADEWCDSGLGSLGPDAAAPGGPGLGAELGPGLSWAPLVFGYVTEDGDTALHLAVIHQHEPFLDFLLGFSAGTEYMDLQNDLGQTALHLAAILGETSTVEKLYAAGAGLCVAERRGHTALHLACRVGAHACARALLQPRPRRPREAPDTYLAQGPDRTPDTNHTPVALYPDSDLEKEEEESEEDWKLQLEAENYEGHTPLHVAVIHKDVEMVRLLRDAGADLDKPEPTCGRSPLHLAVEAQAADVLELLLRAGANPAARMYGGRTPLGSAMLRPNPILARLLRAHGAPEPEGEDEKSGPCSSSSDSDSGDEGDEYDDIVVHSSRSQTRLPPTPASKPLPDDPRPV"}, "B2": {"name": "MYOD1, P15172 (protein)", "chain": "MELLSPPLRDVDLTAPDGSLCSFATTDDFYDDPCFDSPDLRFFEDLDPRLMHVGALLKPEEHSHFPAAVHPAPGAREDEHVRAPSGHHQAGRCLLWACKACKRKTTNADRRKAATMRERRRLSKVNEAFETLKRCTSSNPNQRLPKVEILRNAIRYIEGLQALLRDQDAAPPGAAAAFYAPGPLPPGRGGEHYSGDSDASSPRSNCSDGMMDYSGPPSGARRRNCYEGAYYNEAPSEPRPGKSAAVSSLDCLSSIVERISTESPAAPALLLADVPSESPPRRQEAAAPSEGESSGDPTQSPDAAPQCPAGANPNPIYQVL"}, "B3": {"name": "TSC22D4, Q9Y3Q8 (protein)", "chain": "MSGGKKKSSFQITSVTTDYEGPGSPGASDPPTPQPPTGPPPRLPNGEPSPDPGGKGTPRNGSPPPGAPSSRFRVVKLPHGLGEPYRRGRWTCVDVYERDLEPHSFGGLLEGIRGASGGAGGRSLDSRLELASLGLGAPTPPSGLSQGPTSWLRPPPTSPGPQARSFTGGLGQLVVPSKAKAEKPPLSASSPQQRPPEPETGESAGTSRAATPLPSLRVEAEAGGSGARTPPLSRRKAVDMRLRMELGAPEEMGQVPPLDSRPSSPALYFTHDASLVHKSPDPFGAVAAQKFSLAHSMLAISGHLDSDDDSGSGSLVGIDNKIEQAMDLVKSHLMFAVREEVEVLKEQIRELAERNAALEQENGLLRALASPEQLAQLPSSGVPRLGPPAPNGPSV"}, "B4": {"name": "RARA, P10276 (protein)", "chain": "MASNSSSCPTPGGGHLNGYPVPPYAFFFPPMLGGLSPPGALTTLQHQLPVSGYSTPSPATIETQSSSSEEIVPSPPSPPPLPRIYKPCFVCQDKSSGYHYGVSACEGCKGFFRRSIQKNMVYTCHRDKNCIINKVTRNRCQYCRLQKCFEVGMSKESVRNDRNKKKKEVPKPECSESYTLTPEVGELIEKVRKAHQETFPALCQLGKYTTNNSSEQRVSLDIDLWDKFSELSTKCIIKTVEFAKQLPGFTTLTIADQITLLKAACLDILILRICTRYTPEQDTMTFSDGLTLNRTQMHNAGFGPLTDLVFAFANQLLPLEMDDAETGLLSAICLICGDRQDLEQPDRVDMLQEPLLEALKVYVRKRRPSRPHMFPKMLMKITDLRSISAKGAERVITLKMEIPGSMPPLIQEMLENSEGLDTLSGQPGGGGRDGGGLAPPPGSCSPSLSPSSNRSSPATHSP"}, "B5": {"name": "POU2F1, P14859 (protein)", "chain": "MNNPSETSKPSMESGDGNTGTQTNGLDFQKQPVPVGGAISTAQAQAFLGHLHQVQLAGTSLQAAAQSLNVQSKSNEESGDSQQPSQPSQQPSVQAAIPQTQLMLAGGQITGLTLTPAQQQLLLQQAQAQAQLLAAAVQQHSASQQHSAAGATISASAATPMTQIPLSQPIQIAQDLQQLQQLQQQNLNLQQFVLVHPTTNLQPAQFIISQTPQGQQGLLQAQNLLTQLPQQSQANLLQSQPSITLTSQPATPTRTIAATPIQTLPQSQSTPKRIDTPSLEEPSDLEELEQFAKTFKQRRIKLGFTQGDVGLAMGKLYGNDFSQTTISRFEALNLSFKNMCKLKPLLEKWLNDAENLSSDSSLSSPSALNSPGIEGLSRRRKKRTSIETNIRVALEKSFLENQKPTSEEITMIADQLNMEKEVIRVWFCNRRQKEKRINPPSSGGTSSSPIKAIFPSPTSLVATTPSLVTSSAATTLTVSPVLPLTSAAVTNLSVTGTSDTTSNNTATVISTAPPASSAVTSPSLSPSPSASASTSEASSASETSTTQTTSTPLSSPLGTSQVMVTASGLQTAAAAALQGAAQLPANASLAAMAAAAGLNPSLMAPSQFAAGGALLSLNPGTLSGALSPALMSNSTLATIQALASGGSLPITSLDATGNLVFANAGGAPNIVTAPLFLNPQNLSLLTSNPVSLVSAAAASAGNSAPVASLHATSTSAESIQNSLFTVASASGAASTTTTASKAQ"}, "B6": {"name": "GSX1, Q9H4S2 (protein)", "chain": "MPRSFLVDSLVLREAGEKKAPEGSPPPLFPYAVPPPHALHGLSPGACHARKAGLLCVCPLCVTASQLHGPPGPPALPLLKASFPPFGSQYCHAPLGRQHSAVSPGVAHGPAAAAAAAALYQTSYPLPDPRQFHCISVDSSSNQLPSSKRMRTAFTSTQLLELEREFASNMYLSRLRRIEIATYLNLSEKQVKIWFQNRRVKHKKEGKGSNHRGGGGGGAGGGGSAPQGCKCASLSSAKCSEDDDELPMSPSSSGKDDRDLTVTP"}, "B7": {"name": "ERBB2IP, Q96RT1 (protein)", "chain": "MTTKRSLFVRLVPCRCLRGEEETVTTLDYSHCSLEQVPKEIFTFEKTLEELYLDANQIEELPKQLFNCQSLHKLSLPDNDLTTLPASIANLINLRELDVSKNGIQEFPENIKNCKVLTIVEASVNPISKLPDGFSQLLNLTQLYLNDAFLEFLPANFGRLTKLQILELRENQLKMLPKTMNRLTQLERLDLGSNEFTEVPEVLEQLSGLKEFWMDANRLTFIPGFIGSLKQLTYLDVSKNNIEMVEEGISTCENLQDLLLSSNSLQQLPETIGSLKNITTLKIDENQLMYLPDSIGGLISVEELDCSFNEVEALPSSIGQLTNLRTFAADHNYLQQLPPEIGSWKNITVLFLHSNKLETLPEEMGDMQKLKVINLSDNRLKNLPFSFTKLQQLTAMWLSDNQSKPLIPLQKETDSETQKMVLTNYMFPQQPRTEDVMFISDNESFNPSLWEEQRKQRAQVAFECDEDKDEREAPPREGNLKRYPTPYPDELKNMVKTVQTIVHRLKDEETNEDSGRDLKPHEDQQDINKDVGVKTSESTTTVKSKVDEREKYMIGNSVQKISEPEAEISPGSLPVTANMKASENLKHIVNHDDVFEESEELSSDEEMKMAEMRPPLIETSINQPKVVALSNNKKDDTKETDSLSDEVTHNSNQNNSNCSSPSRMSDSVSLNTDSSQDTSLCSPVKQTHIDINSKIRQEDENFNSLLQNGDILNSSTEEKFKAHDKKDFNLPEYDLNVEERLVLIEKSVDSTATADDTHKLDHINMNLNKLITNDTFQPEIMERSKTQDIVLGTSFLSINSKEETEHLENGNKYPNLESVNKVNGHSEETSQSPNRTEPHDSDCSVDLGISKSTEDLSPQKSGPVGSVVKSHSITNMEIGGLKIYDILSDNGPQQPSTTVKITSAVDGKNIVRSKSATLLYDQPLQVFTGSSSSSDLISGTKAIFKFDSNHNPEEPNIIRGPTSGPQSAPQIYGPPQYNIQYSSSAAVKDTLWHSKQNPQIDHASFPPQLLPRSESTENQSYAKHSANMNFSNHNNVRANTAYHLHQRLGPARHGEMWAISPNDRLIPAVTRSTIQRQSSVSSTASVNLGDPGSTRRAQIPEGDYLSYREFHSAGRTPPMMPGSQRPLSARTYSIDGPNASRPQSARPSINEIPERTMSVSDFNYSRTSPSKRPNARVGSEHSLLDPPGKSKVPRDWREQVLRHIEAKKLEKKHPQTSSSGDPCQDGIFISGQQNYSSATLSHKDVPPDSLMKMPLSNGQMGQPLRPQANYSQIHHPPQASVARHPSREQLIDYLMLKVAHQPPYTQPHCSPRQGHELAKQEIRVRVEKDPELGFSISGGVGGRGNPFRPDDDGIFVTRVQPEGPASKLLQPGDKIIQANGYSFINIEHGQAVSLLKTFQNTVELIIVREVSS"}},
  "note": "This is one part of the list. Binding of human transcription factors and regulators to the viral nucleoprotein by AlphaScreen, crude cell-free proteins, amounts not normalised, one pass. Fold of the Venus control; higher = more signal. No active / inactive call. Single-pass screen; sequences are the whole Swiss-Prot entries looked up by name.",
  "data": [
    {"target": "nucleoprotein N of Crimean-Congo hemorrhagic fever virus", "assay": "AlphaScreen luminescence signal relative to Venus negative control (fold); higher = stronger binding to CCHFV N", "protocol": "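AlphaScreen binding of cell-free made, FLAG-GST-tagged human transcription factors and regulators (crude translation products) to biotinylated N protein; signal as fold of the FLAG-GST-Venus control. One pass.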", "values": [
      {"binder": "B1", "AlphaScreen luminescence signal": 1.63},
      {"binder": "B2", "AlphaScreen luminescence signal": 2.23},
      {"binder": "B3", "AlphaScreen luminescence signal": 1.81},
      {"binder": "B4", "AlphaScreen luminescence signal": 3.77},
      {"binder": "B5", "AlphaScreen luminescence signal": 3.07},
      {"binder": "B6", "AlphaScreen luminescence signal": 2.37},
      {"binder": "B7", "AlphaScreen luminescence signal": 1.67}
    ]}
  ]
}
